Laboratory results taken from PubChem BioAssay AID1345083 (National Center for Advancing Translational Sciences (NCATS), 2018).
The whole screen tested about 94,000 compounds, of which about 6,200 (6.6%) were called active. Inconclusive means that the source gave no clear call. Such entries were picked first, then a sample of the others. Calls follow the shape of the dose curve; as a rule, active = well fitted inhibition curve with a large enough effect; inconclusive = small, poorly fitted or top-dose-only effect; inactive = flat fitted curve, though single readings scatter. Potencies beside an inconclusive call are fits to weak or partial responses and may not hold up.

Assay: Cytotoxic Profiling in HEK 293 Cell Line of Diverse Libraries Using Quantitative High-Throughput Screening; also: nearly all actives have a fitted effect of over 60% in size
Conditions: HEK 293 viability, ATP luminescence (CellTiter-Glo), 48-72 h; activity change, negative = cytotoxicity: at 115 µM (top of the series) unless noted; series mostly up to 115 µM
Summary of the method: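 Luminescence from cellular ATP, measured with CellTiter-Glo, indicates HEK 293 viability. Cells plated at 250 cells/well are treated with compound for 48 or 72 hr at 37 degree Celsius before reagent addition.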
% is scaled to controls: 0 for no effect and ±100 for the full control effect; potency is read from the fitted curve at half-maximal effect; tags tell the direction and shape of the fitted curve.

Question: For COc1cccc(CC(=O)N2CCCN(Cc3ccncc3)C(c3ccccc3)CC(=O)NCC2)c1 (configuration not stated), which Potency is on record?
Answer: inconclusive: 89.1 µM [inhibitor, single point]

Question: For Cc1nn(-c2ccccc2)c(Oc2ccc(F)cc2F)c1CCC(=O)N1CCSCC1, which Potency is on record?
Answer: inconclusive: 56.2 µM [inhibitor, partial curve, poor fit]

Question: With CN1Cc2ncnc(NCC3CCCCC3)c2CN(c2ccccc2)C1=O as the compound, how does the Potency read?
Answer: inconclusive: 50.1 µM [inhibitor, partial curve, poor fit]

Question: Which Potency does the source give for COc1ccc(C(=O)NC2CCN(C(=O)c3ccc(-c4cccc(OC)c4)cc3)CC2)cc1 here?
Answer: inconclusive: 28.2 µM [inhibitor, full curve]

Question: Which “activity change, negative = cytotoxicity” value does the source give for COc1ccccc1-c1nc(-c2nnn3c2COC(c2ccc(C)cc2)C3)no1 (configuration not stated) here?
Answer: inactive: -6.58%

Question: With Cc1ccc(C)c(-c2cc3c(=O)n(CCNC(=O)c4cccc(N(C)C)c4)ccn3n2)c1 as the compound, how does the Potency read?
Answer: inconclusive: 44.7 µM [inhibitor, partial curve, poor fit]

Question: Which Potency does the source give for CCCn1c(C)cnc1CC1CCCN(Cc2cccc(OC)c2)C1 (configuration not stated) here?
Answer: inconclusive: 79.4 µM [inhibitor, partial curve, poor fit]

Question: Which Potency does the source give for C=CCNC(=O)c1coc(COc2ccc3c(c2)C(c2ccc(C)cc2)N(C(=O)C2CC2)CC3)n1 (configuration not stated) here?
Answer: inconclusive: 22.4 µM [inhibitor, partial curve, poor fit]

Question: With N#Cc1cccc(-c2c(C(=O)NCCc3ccccc3F)nc3sccn23)c1 as the compound, how does the Potency read?
Answer: inconclusive: 56.2 µM [inhibitor, partial curve, poor fit]

Question: With CC(C)C(=O)N1CCN(c2nc3c(s2)CC(C(=O)NC2CCN(C)CC2)CC3)CC1 (configuration not stated) as the compound, how does the “activity change, negative = cytotoxicity” value read?
Answer: inactive: -3.71%

Question: With CC[C@H]1CN(S(=O)(=O)c2c(C)noc2C)CC[C@H]1CC(=O)Nc1nccs1 as the compound, how does the Potency read?
Answer: inconclusive: 100 µM [inhibitor, partial curve, poor fit]

Question: With Cc1ccccc1CN1CC[C@@H]2OCC(=O)N(C(C)C)[C@H]2CC1 as the compound, how does the Potency read?
Answer: inconclusive: 100 µM [inhibitor, partial curve, poor fit]

Question: For Cc1cn2nc(C(=O)NCCCc3ccccc3)cc2c(N2CCSCC2)n1, which Potency is on record?
Answer: inconclusive: 89.1 µM [inhibitor, single point]

Question: For COC(=O)c1ccc(CNC(=O)CN2CCN(c3nccnc3C#N)CC2)o1, which “activity change, negative = cytotoxicity” value is on record?
Answer: inactive: 1%

Question: With O=c1n(-c2ccc(F)cc2F)nc2n1CCN(CC1CC1)C2 as the compound, how does the Potency read?
Answer: inconclusive: 126 µM [inhibitor, single point]

Question: Which “activity change, negative = cytotoxicity” value does the source give for COc1ccc(CNC[C@H]2COCc3nc4cccnc4n32)cc1 here?
Answer: inactive: -23.4% [at 172 µM]

Question: For O=C(NCCc1ccccc1)c1cnc2n1CCN(CCc1ccccc1)CC2, which Potency is on record?
Answer: inconclusive: 50.1 µM [inhibitor, partial curve, poor fit]

Question: Which Potency does the source give for O=C(CCc1conc1-c1ccccc1F)NCc1cccc(C(F)(F)F)c1 here?
Answer: inconclusive: 56.2 µM [inhibitor, partial curve, poor fit]

Question: Which Potency does the source give for CC(C)(C)CC(=O)N1CCC(C(NC(=O)c2ccccc2)C(=O)NCc2ccco2)CC1 (configuration not stated) here?
Answer: inconclusive: 89.1 µM [inhibitor, single point]

Question: With O=C(c1ccccc1F)N1CCC2(Cc3ccccc3NC2=O)C1 (configuration not stated) as the compound, how does the “activity change, negative = cytotoxicity” value read?
Answer: inactive: -26.2% [at 172 µM]

Question: For O=C(c1n[nH]c2ccccc12)N1CC(Oc2ccccc2-c2nc(C3CC3)no2)C1, which Potency is on record?
Answer: inconclusive: 44.7 µM [inhibitor, partial curve, poor fit]

Question: With O=C(Cc1ccsc1)NC1CCc2nnc(C3CC3)n2CC1 (configuration not stated) as the compound, how does the Potency read?
Answer: inconclusive: 31.6 µM [inhibitor, full curve]

Question: For CN1CCN(c2nc3c(c(=O)[nH]2)CCN(Cc2ccc(Cl)cc2F)CC3)CC1, which Potency is on record?
Answer: inconclusive: 50.1 µM [inhibitor, partial curve, poor fit]

Question: Which Potency does the source give for CCC1(C(=O)NCc2ccc(N3CCC(C)CC3)cc2)CCCCC(=O)N1 (configuration not stated) here?
Answer: inconclusive: 50.1 µM [inhibitor, partial curve, poor fit]

Question: Which Potency does the source give for CC(C)c1ccc(CC(=O)N2CCCc3ncc(C(=O)NCCc4ccccc4)cc32)cc1 here?
Answer: inconclusive: 50.1 µM [inhibitor, partial curve, poor fit]

Question: With N#Cc1cccc(-c2c(C(=O)NCc3ccccn3)nc3sccn23)c1 as the compound, how does the Potency read?
Answer: inconclusive: 70.8 µM [inhibitor, single point]

Question: With Cc1ccc(C(=O)N2CCCC(c3noc(COc4ccccc4)n3)C2)s1 (configuration not stated) as the compound, how does the Potency read?
Answer: inconclusive: 50.1 µM [inhibitor, partial curve, poor fit]

Question: With CCc1nncn1C1CCN(S(=O)(=O)c2c(C)noc2C)C1 (configuration not stated) as the compound, how does the “activity change, negative = cytotoxicity” value read?
Answer: inactive: 2.52%

Question: For COC(=O)CNC(=O)C1CCCCN1Cc1ccc(-c2cc(F)ccc2OC)cc1 (configuration not stated), which Potency is on record?
Answer: inconclusive: 79.4 µM [inhibitor, partial curve, poor fit]

Question: Which Potency does the source give for O=C(CCc1ccccc1)N1CCC2(CC1)NC(=O)N(c1cccc(F)c1)N2 here?
Answer: inconclusive: 44.7 µM [inhibitor, partial curve]

Question: With COC(=O)c1cccc(NC(=S)N[C@H]2CO[C@H]3[C@@H]2OC[C@@H]3n2nnnc2-c2cccc(OC)c2)c1 as the compound, how does the Potency read?
Answer: inconclusive: 50.1 µM [inhibitor, partial curve, poor fit]

Question: With COc1ccc(C(=O)N2CCC(n3cc(-c4nc(C(C)C)no4)nn3)CC2)cc1 as the compound, how does the Potency read?
Answer: inconclusive: 100 µM [inhibitor, single point]

Question: For COc1ccc(C(=O)NCCNC(=O)c2cccc(-c3cc(F)ccc3OC)c2)cc1, which Potency is on record?
Answer: active: 39.8 µM

Question: For COc1ncccc1-c1nccc2c(=O)cc(N(C)c3ccccc3)oc12, which Potency is on record?
Answer: inconclusive: 100 µM [inhibitor, partial curve, poor fit]

Question: Which “activity change, negative = cytotoxicity” value does the source give for Cc1ccc(NC(=O)Cn2cccc2-c2nc(-c3ccccc3)no2)c(C)c1 here?
Answer: inactive: 9.02%

Question: For O=C(NCC1CC1)c1csc(N2CCN(c3ccccc3F)CC2)n1, which Potency is on record?
Answer: active: 35.5 µM

Question: For COc1ccc(NC(=O)C2=NO[C@@H]3CN(Cc4ccc(F)cc4)C[C@H]23)cn1, which Potency is on record?
Answer: inconclusive: 100 µM [inhibitor, partial curve]

Question: Which Potency does the source give for CN(CC(=O)N1CCCn2nc(-c3cccc(C(F)(F)F)c3)cc2C1)S(=O)(=O)c1ccc2c(c1)oc(=O)n2C here?
Answer: active: 31.6 µM

Question: Which Potency does the source give for Cc1ccc(-c2cnc([C@@H]3COCCN3Cc3ccccc3F)[nH]2)cc1 here?
Answer: inconclusive: 100 µM [inhibitor, partial curve]

Question: For CN1CCCCCCN(C(=O)Cc2c[nH]c3ccccc23)[C@H]2CCC[C@H]2C1=O, which Potency is on record?
Answer: inconclusive: 89.1 µM [inhibitor, partial curve, poor fit]

Question: For c1ccc(Oc2cc3c(cn2)NCCN(Cc2cnc[nH]2)C3)cc1, which Potency is on record?
Answer: inconclusive: 89.1 µM [inhibitor, partial curve]

Question: Which “activity change, negative = cytotoxicity” value does the source give for COC(=O)c1ccc(CN2C(=O)[C@@H]3C[C@@H](O)CN3C3(CN(Cc4cccc(OC)c4)C3)C2=O)cc1 here?
Answer: inactive: -9.54%

Question: Which Potency does the source give for O=C(NC1CCN(Cc2ccc(-c3ccsc3)cc2)C1)C1CC1 (configuration not stated) here?
Answer: inconclusive: 100 µM [inhibitor, partial curve, poor fit]

Question: With COc1ccc(Cl)cc1NC(=O)CC1CCCN(c2cnn(C)c(=O)c2)C1 (configuration not stated) as the compound, how does the “activity change, negative = cytotoxicity” value read?
Answer: inactive: -18.4%

Question: Which Potency does the source give for CC(C)(O)CCc1cccc(C(=O)NCCCc2nc3ccccc3o2)c1 here?
Answer: inconclusive: 79.4 µM [inhibitor, partial curve, poor fit]

Question: With Cc1ccc(CS(=O)(=O)N2CCC(C3CCNC3)CC2)cc1C (configuration not stated) as the compound, how does the Potency read?
Answer: active: 89.1 µM

Question: With CCNc1cc(N2CCC(CCC(=O)N3CCc4ccccc4C3)CC2)ncn1 as the compound, how does the Potency read?
Answer: inconclusive: 20 µM [inhibitor, partial curve, poor fit]

Question: Which Potency does the source give for CNC(=O)CCn1ncc2cc(OC3CCc4cccc(-c5ccc(F)cc5)c43)ccc21 (configuration not stated) here?
Answer: active: 63.1 µM

Question: Which “activity change, negative = cytotoxicity” value does the source give for COCCNC(=O)[C@H]1C[C@H](Oc2ccccc2)CN1S(=O)(=O)Cc1ccccc1F here?
Answer: inactive: -6%

Question: With CNC(=O)c1cc(C2CC2)nc2c1c(C1CCCN(C(=O)Cc3ccc(OC)cc3)C1)nn2C (configuration not stated) as the compound, how does the “activity change, negative = cytotoxicity” value read?
Answer: inactive: -18%

Question: Which Potency does the source give for CCc1nc2c(c(-c3ccc(O)cc3)n1)CCN(C(=O)c1cccc(Cl)c1)CC2 here?
Answer: inconclusive: 70.8 µM [inhibitor, partial curve, poor fit]

Question: Which Potency does the source give for COc1ccc(S(=O)(=O)N2CC(=O)N(CC3CC3)C3(CCCCC3)C2)cc1 here?
Answer: inconclusive: 79.4 µM [inhibitor, partial curve, poor fit]

Question: With Cc1ccc(C)c(C(=O)NC2CCCN(c3cc(-c4ccccc4)[nH]n3)C2)c1 (configuration not stated) as the compound, how does the Potency read?
Answer: inconclusive: 89.1 µM [inhibitor, partial curve, poor fit]

Question: For O=C(CN1C(=O)CNC1=O)NCCc1noc(-c2ccccc2)n1, which “activity change, negative = cytotoxicity” value is on record?
Answer: inactive: -7.66%

Question: With CC(=O)N1CCCC2(C1)CN(C)c1ccc(C(=O)NC3CC3)cc12 (configuration not stated) as the compound, how does the “activity change, negative = cytotoxicity” value read?
Answer: inactive: 4.11% [at 172 µM]

Question: With Cc1ccc(CN2C(=O)NC3(CCCN(C(=O)c4cc5ccccc5[nH]4)C3)C2=O)cc1 (configuration not stated) as the compound, how does the Potency read?
Answer: inconclusive: 56.2 µM [inhibitor, partial curve, poor fit]

Question: Which “outcome” value does the source give for COc1ccc(-n2c(=O)c(C(=O)N3CCC(C#N)CC3)nc3cccnc32)cc1 here?
Answer: inactive

Question: With Cc1nn(-c2ccccc2)c2c1C(C1CC1)N(CC1CN(C(=O)N(C)C)C1)C2=O (configuration not stated) as the compound, how does the Potency read?
Answer: active: 44.7 µM

Question: Which Potency does the source give for CCOc1cccc(-c2nnc(CCC(=O)NC(C)c3ccccc3)c(=O)[nH]2)c1 (configuration not stated) here?
Answer: inconclusive: 35.5 µM [inhibitor, full curve, poor fit]

Question: Which Potency does the source give for COc1cccc(CN2CCCCCCNC(=O)[C@@H]3C[C@@H](C(=O)N4CCc5ccccc5C4)C[C@@H]32)c1 here?
Answer: inconclusive: 50.1 µM [inhibitor, partial curve, poor fit]

Question: For CC(C)c1ccc(CN2CCC3(CC2)OCCN(c2ccc(F)cc2)C3=O)cc1, which Potency is on record?
Answer: inconclusive: 89.1 µM [inhibitor, partial curve, poor fit]

Question: Which “activity change, negative = cytotoxicity” value does the source give for CCOC(=O)[C@H]1[C@@H](O)C(=O)NC12CCN(C(=O)c1csc(-c3cccs3)n1)CC2 here?
Answer: inactive: -30.6%
